{
  "source": "patent US20250281631A1",
  "about": "“ANTIBODY-DRUG CONJUGATES AND PREPARATION METHODS AND USE THEREOF” (SICHUAN KELUN-BIOTECH BIOPHARMACEUTICAL CO., LTD, priority 2022, published 2025)",
  "molecules": {"B1": {"name": "22B6-A-07-A-1: ADC of antibody 22B6D2-hIgG1 conjugated to drug-linker A-07-A, DAR 7.99 (conjugate)", "heavy": "EVHLVESGGGVVQPGRSLRLSCATSGFTFRSYGMHWVRQAPGKGLEWVAVIWYDGSNKYYADSVKGRFTISRDISKNTLYLQMNSLTAEDTAVYYCARYYYDSNGYYDAFDIWGQGTMVTVSSASTKGPSVFPLAPSSKSTSGGTAALGCLVKDYFPEPVTVSWNSGALTSGVHTFPAVLQSSGLYSLSSVVTVPSSSLGTQTYICNVNHKPSNTKVDKRV[in this place human IgG1 Fc]", "light": "DIQLTQSPSFLSASVGDRVTITCRASQGISNYLAWYQQKPGKAPKLLIFAASTLQSGVPSRFSGSGSGAEFTLTISSLEPEDFATYYCQQLNSYPITFGQGTRLEIKRTVAAPSVFIFPPSDEQLKSGTASVVCLLNNFYPREAKVQWKVDNALQSGNSQESVTEQDSKDSTYSLSSTLTLSKADYEKHKVYACEVTHQGLSSPVTKSFNRGEC"}},
  "key": {"HEK293T-h HER3 cells": {"test_system": "HEK293T-h HER3 cells", "assay": "Bystander effect test, positive cells alone (flow cytometry, PI)", "type": "cell-based, human", "details": "4 days", "description": "3. Bystander Effect of Anti-Human HER3 Antibody-Drug Conjugates\nHEK293T and HEK293T-h HER3 cells were digested with 0.25% Trypsin-EDTA (manufacturer: Gibco), counted, and an appropriate amount of the cells were taken, washed twice with 1×PBS, the cell density was adjusted to 1×10^6 cells/ml, and then Cell Trace Violet was added to reach a final concentration of 5 μM for labeling, mixed well and incubated in an incubator for 20 min, then the cells were washed with growth medium and counted, plated on 24-well plates (500 μl/well) according to the following ratios: HEK293T-labeled: HEK293T=4000:12000 cells/well, HEK293T-labeled: HEK293T-h HER3=4000:12000 cells/well, HEK293T-h HER3-labeled: HEK293T-h HER3=4000:12000 cells/well, and cultured overnight at 37° C., 5% CO2;\nOn the next day, ADC was diluted with growth medium to reach concentrations of 20 nM, 4 nM, and 0.8 nM, then 500 μl of the diluted ADC was taken and added to the corresponding 24-well plates containing cells, and the plates were placed and cultured in an incubator at 37° C., 5% CO2 for 4 days;\nHEK293T and HEK293T-h HER3 cells were digested with 0.25% Trypsin-EDTA, added to a growth medium containing PI with a final concentration of 3 μM, mixed well, incubated at room temperature for 15 min, and then detected by flow cytometry (Thermo, model: Attune NxT)."}, "[1]": {"test_system": "NCI-H358 non-small cell lung cancer xenograft model", "assay": "In vivo drug efficacy in NCI-H358 CDX model", "design": "species or system female BALB/c-nu mice", "details": "3 administrations, Day 32; for T/C / TGI / Tumor volume (x ± SEM): tail vein injection; for tumor growth inhibition rate (TGI): tail vein", "description": "5. Detection of In Vivo Drug Efficacy of Anti-Human HER3 Antibody-Drug Conjugates in H358 Model\nNCI-H358 cells were cultured at 37° C., 5% CO2 in RPMI1640 medium containing 10% fetal bovine serum. The NCI-H358 cells in the exponential growth phase were collected, resuspended in PBS to an appropriate concentration, and inoculated subcutaneously in female BALB/c-nu mice to establish a non-small cell lung cancer model. When the average volume of the tumor was about 130 to 150 mm^3, the animals were randomly divided into 11 groups according to tumor size, including: vehicle control group (i.e., negative control group), hIgG1-A-01 1 mg/kg group, U1-59-A-01 1 mg/kg group, ADC 22B6-A-01 1 mg/kg group, hIgG1-B-01 1 mg/kg group, ADC 22B6-B-01 1 mg/kg group, hIgG1-A-07-A 1 mg/kg group, ADC 22B6-A-07-A-1 1 mg/kg and 3 mg/kg groups, hIgG1-B-03-1 1 mg/kg group, ADC 22B6-B-03-1 1 mg/kg group. All animals were administered via injection through tail vein on Day 0, Day 1, Day 4 and Day 10, 3 times in total. After administration, the tumor diameter was measured twice a week with a vernier caliper, and the tumor volume was calculated according to the following formula: V=0.5 a×b^2, wherein a and b represented the long and short diameters of the tumor, respectively, and the death of animals was observed and recorded every day.\n(§1) The following formula was used to calculate the tumor growth inhibition rate TGI (%), which was used to evaluate the tumor inhibitory efficacy:\n(§2) [formula] • wherein, • VTend represented a mean value of tumor volume at the end of the experiment in a treatment group • VTstart represented a mean value of tumor volume at the beginning of the administration in a treatment group • VCend represented a mean value of tumor volume at the end of the experiment in the negative control group • VCstart represented a mean value of tumor volume at the beginning of the administration in the negative control group"}, "[2]": {"test_system": "human breast cancer MDA-MB-453 xenograft tumor model", "assay": "In vivo drug efficacy in MDA-MB-453 CDX model", "design": "species or system female NCG immunodeficient mice", "details": "for Tumor regression CR (n = 6) / Tumor regression PR (n = 6): Day 32, number of animals of 6; for T/C / TGI / Tumor volume (x ± SEM): tail vein, Day 32", "from_the_text": "as §1, §2\n7. Detection of In Vivo Drug Efficacy of Anti-Human HER3 Antibody-Drug Conjugates in MDA-MB-453 Model\nHuman breast cancer cell line MDA-MB-453 was cultured in DMEM/F12 medium containing 10% fetal bovine serum at 37° C. and 5% CO2. The MDA-MB-453 cells in the exponential growth phase were collected, resuspended to an appropriate concentration by adding PBS and Matrigel at 50% of the final concentration, and inoculated subcutaneously in female NCG immunodeficient mice to establish a human breast cancer xenograft tumor model. When the average volume of tumor was about 150 mm^3, the animals were randomly divided into groups according to the tumor size, including: vehicle control group, hIgG1-A-07-A 3 mg/kg group, ADC 22B6-A-07-A-1 1 mg/kg group, 3 mg/kg group and 10 mg/kg group, hIgG1-A-01 3 mg/kg group, U1-59-A-01 3 mg/kg group and 10 mg/kg group, hIgG1-B-03-2 3 mg/kg group, ADC 22B6-B-03-2 3 mg/kg group. After the grouping, the animals were given a single dose via injection through tail vein on Day0. After administration, the tumor volume and body weight of the mice were observed and regularly measured, and the specific results were shown in Table 36, and FIGS. 7A, 7B."}},
  "data": [
    {"molecule": "B1", "values": [
      {"measurement": "killing of HEK293T-HER3 cells", "setting": "HEK293T-h HER3 cells", "value": "significant specific killing effect"},
      {"measurement": "T/C", "setting": "[1]; 1 mg/kg", "value": 39.63, "unit": "%"},
      {"measurement": "TGI", "setting": "[1]; 1 mg/kg", "value": 81.22, "unit": "%"},
      {"measurement": "Tumor volume (x ± SEM)", "setting": "[1]; 1 mg/kg", "value": "208.35 ± 42.59", "unit": "mm^3"},
      {"measurement": "tumor growth inhibition rate (TGI)", "setting": "[1]; 1 mg/kg", "value": 81.22, "unit": "%"},
      {"measurement": "T/C", "setting": "[1]; 3 mg/kg", "value": 22.77, "unit": "%"},
      {"measurement": "TGI", "setting": "[1]; 3 mg/kg", "value": 111.53, "unit": "%"},
      {"measurement": "Tumor volume (x ± SEM)", "setting": "[1]; 3 mg/kg", "value": "118.71 ± 29.81", "unit": "mm^3"},
      {"measurement": "tumor growth inhibition rate (TGI)", "setting": "[1]; 3 mg/kg", "value": 111.53, "unit": "%"},
      {"measurement": "Tumor regression CR (n = 6)", "setting": "[2]; 1 mg/kg single dose", "value": "0/0"},
      {"measurement": "Tumor regression PR (n = 6)", "setting": "[2]; 1 mg/kg single dose", "value": "0/0"},
      {"measurement": "T/C", "setting": "[2]; 1 mg/kg single dose", "value": 55.64, "unit": "%"},
      {"measurement": "TGI", "setting": "[2]; 1 mg/kg single dose", "value": 62.07, "unit": "%"},
      {"measurement": "Tumor volume (x ± SEM)", "setting": "[2]; 1 mg/kg single dose", "value": "291.74 ± 18.54", "unit": "mm^3"},
      {"measurement": "TGI", "setting": "[2]; 1 mg/kg, single dose", "value": 62.07, "unit": "%"},
      {"measurement": "Tumor regression CR (n = 6)", "setting": "[2]; 3 mg/kg single dose", "value": 0},
      {"measurement": "Tumor regression PR (n = 6)", "setting": "[2]; 3 mg/kg single dose", "value": 3},
      {"measurement": "T/C", "setting": "[2]; 3 mg/kg single dose", "value": 23.05, "unit": "%"},
      {"measurement": "TGI", "setting": "[2]; 3 mg/kg single dose", "value": 118.30, "unit": "%"},
      {"measurement": "Tumor volume (x ± SEM)", "setting": "[2]; 3 mg/kg single dose", "value": "120.03 ± 25.22", "unit": "mm^3"},
      {"measurement": "TGI", "setting": "[2]; 3 mg/kg, single dose", "value": 118.30, "unit": "%"},
      {"measurement": "Tumor regression CR (n = 6)", "setting": "[2]; 10 mg/kg single dose", "value": 6},
      {"measurement": "Tumor regression PR (n = 6)", "setting": "[2]; 10 mg/kg single dose", "value": 0},
      {"measurement": "T/C", "setting": "[2]; 10 mg/kg single dose", "value": 0.00, "unit": "%"},
      {"measurement": "TGI", "setting": "[2]; 10 mg/kg single dose", "value": 200.00, "unit": "%"},
      {"measurement": "Tumor volume (x ± SEM)", "setting": "[2]; 10 mg/kg single dose", "value": "0.00 ± 0.00", "unit": "mm^3"},
      {"measurement": "TGI", "setting": "[2]; 10 mg/kg, single dose", "value": 200.00, "unit": "%"},
      {"measurement": "tumor regression", "setting": "[2]; 10 mg/kg, single dose, no growth observed by Day32", "value": "completely regressed from Day 19"}
    ]}
  ]
}
